Test results published in patent US12286661B2, “Methods for making high intensity sweeteners” (Firmenich Incorporated, priority 2018, dated 2025).
Changes are numbered by the printed parent chain.

B1: SEQ ID NO 1003: fusion protein having cucurbitadienol synthase activity (protein)
chain: MANQIANQGSAAPGSGSGSGMWRLKVGKESVGEKEEKWIKSISNHLGRQVWEFCSGENENDDDEAIAVANNSASKFENARNHFRNNRFHRKQSSDLFLAIQCEKEIIRNGAKNEGTTKVKEGEDVKKEAVKNTLERALSFYSAVQTSDGNWASDLGGPMFLLPGLVIALYVTGVLNSVLSKHHRQEMCRYIYNHQNEDGGWGLHIEGSSTMFGSALNYVALRLLGEAADGGEHGAMTKARSWILERGGATAITSWGKLWLSVLGVYEWSGNNPLPPEFWLLPYSLPFHPGRMWCHCRMVYLPMSYLYGKRFVGPITPIVLSLRKELYTIPYHEIDWNRSRNTCAKEDLYYPHPKMQDILWGSIYHVYEPLFSGWPGKRLREKAMKIAMEHIHYEDENSRYICLGPVNKVLNMLCCWVEDPYSDAFKFHLQRIPDYLWLAEDGMRMQGYNGSQLWDTAFSIQAIISTKLIDTFGPTLRKAHHFVKHSQIQEDCPGDPNVWFRHIHKGAWPFSTRDHGWLISDCTAEGLKASLMLSKLPSKIVGEPLEKNRLCDAVNVLLSLQNENGGFASYELTRSYPWLELINPAETFGDIVIDYSYVECTSATMEALALFKKLHPGHRTKEIDAAIAKAANFLENMQKTDGSWYGCWGVCFTYAGWFGIKGLVAAGRTYNNCVAIRKACNFLLSKELPGGGWGESYLSCQNKVYTNLEGNKPHLVNTAWVMMALIEAGQGERDPAPLHRAARLLINSQLESGDFPQQEIMGVFNKNCMITYAAYRNIFPIWALGEYSHRVLDM
modifications: SS5e-G8 Full Gene AA seq
B2: SEQ ID NO 1007: fusion protein having cucurbitadienol synthase activity (protein)
chain: B1 chain with A2V, N3D, Q4A, I5R, A6G, N7S, Q8N
modifications: SS5f-E11 Full Gene AA seq
B3: SEQ ID NO 987: fusion protein having cucurbitadienol synthase activity (protein)
chain: MALGNEIANLQEGSAAPGSGSGSGMWRLKVGKESVGEKEEKWIKSISNHLGRQVWEFCSGENENDDDEAIAVANNSASKFENARNHFRNNRFHRKQSSDLFLAIQCEKEIIRNGAKNEGTTKVKEGEDVKKEAVKNTLERALSFYSAVQTSDGNWASDLGGPMFLLPGLVIALYVTGVLNSVLSKHHRQEMCRYIYNHQNEDGGWGLHIEGSSTMFGSALNYVALRLLGEAADGGEHGAMTKARSWILERGGATAITSWGKLWLSVLGVYEWSGNNPLPPEFWLLPYSLPFHPGRMWCHCRMVYLPMSYLYGKRFVGPITPIVLSLRKELYTIPYHEIDWNRSRNTCAKEDLYYPHPKMQDILWGSIYHVYEPLFSGWPGKRLREKAMKIAMEHIHYEDENSRYICLGPVNKVLNMLCCWVEDPYSDAFKFHLQRIPDYLWLAEDGMRMQGYNGSQLWDTAFSIQAIISTKLIDTFGPTLRKAHHFVKHSQIQEDCPGDPNVWFRHIHKGAWPFSTRDHGWLISDCTAEGLKASLMLSKLPSKIVGEPLEKNRLCDAVNVLLSLQNENGGFASYELTRSYPWLELINPAETFGDIVIDYSYVECTSATMEALALFKKLHPGHRTKEIDAAIAKAANFLENMQKTDGSWYGCWGVCFTYAGWFGIKGLVAAGRTYNNCVAIRKACNFLLSKELPGGGWGESYLSCQNKVYTNLEGNKPHLVNTAWVMMALIEAGQGERDPAPLHRAARLLINSQLESGDFPQQEIMGVFNKNCMITYAAYRNIFPIWALGEYSHRVLDM
modifications: SS5d-E7 Full Gene AA seq
B4: SEQ ID NO 995: fusion protein having cucurbitadienol synthase activity (protein)
chain: B3 chain with A2S, L3S, G4S, N5K, E6K, A8T, N9S, L10V, Q11K, E12Q
modifications: SS5d-G7 Full Gene AA seq
B5: SEQ ID NO 991: fusion protein having cucurbitadienol synthase activity (protein)
chain: MPVSVITTSTQPHVKEPVEEESGSAAPGSGSGSGMWRLKVGKESVGEKEEKWIKSISNHLGRQVWEFCSGENENDDDEAIAVANNSASKFENARNHFRNNRFHRKQSSDLFLAIQCEKEIIRNGAKNEGTTKVKEGEDVKKEAVKNTLERALSFYSAVQTSDGNWASDLGGPMFLLPGLVIALYVTGVLNSVLSKHHRQEMCRYIYNHQNEDGGWGLHIEGSSTMFGSALNYVALRLLGEAADGGEHGAMTKARSWILERGGATAITSWGKLWLSVLGVYEWSGNNPLPPEFWLLPYSLPFHPGRMWCHCRMVYLPMSYLYGKRFVGPITPIVLSLRKELYTIPYHEIDWNRSRNTCAKEDLYYPHPKMQDILWGSIYHVYEPLFSGWPGKRLREKAMKIAMEHIHYEDENSRYICLGPVNKVLNMLCCWVEDPYSDAFKFHLQRIPDYLWLAEDGMRMQGYNGSQLWDTAFSIQAIISTKLIDTFGPTLRKAHHFVKHSQIQEDCPGDPNVWFRHIHKGAWPFSTRDHGWLISDCTAEGLKASLMLSKLPSKIVGEPLEKNRLCDAVNVLLSLQNENGGFASYELTRSYPWLELINPAETFGDIVIDYSYVECTSATMEALALFKKLHPGHRTKEIDAAIAKAANFLENMQKTDGSWYGCWGVCFTYAGWFGIKGLVAAGRTYNNCVAIRKACNFLLSKELPGGGWGESYLSCQNKVYTNLEGNKPHLVNTAWVMMALIEAGQGERDPAPLHRAARLLINSQLESGDFPQQEIMGVFNKNCMITYAAYRNIFPIWALGEYSHRVLDM
modifications: SS5d-G5 Full Gene AA seq
B6: SEQ ID NO 983: fusion protein having cucurbitadienol synthase activity (protein)
chain: MTTDNAAAYSGSAAPGSGSGSGMWRLKVGKESVGEKEEKWIKSISNHLGRQVWEFCSGENENDDDEAIAVANNSASKFENARNHFRNNRFHRKQSSDLFLAIQCEKEIIRNGAKNEGTTKVKEGEDVKKEAVKNTLERALSFYSAVQTSDGNWASDLGGPMFLLPGLVIALYVTGVLNSVLSKHHRQEMCRYIYNHQNEDGGWGLHIEGSSTMFGSALNYVALRLLGEAADGGEHGAMTKARSWILERGGATAITSWGKLWLSVLGVYEWSGNNPLPPEFWLLPYSLPFHPGRMWCHCRMVYLPMSYLYGKRFVGPITPIVLSLRKELYTIPYHEIDWNRSRNTCAKEDLYYPHPKMQDILWGSIYHVYEPLFSGWPGKRLREKAMKIAMEHIHYEDENSRYICLGPVNKVLNMLCCWVEDPYSDAFKFHLQRIPDYLWLAEDGMRMQGYNGSQLWDTAFSIQAIISTKLIDTFGPTLRKAHHFVKHSQIQEDCPGDPNVWFRHIHKGAWPFSTRDHGWLISDCTAEGLKASLMLSKLPSKIVGEPLEKNRLCDAVNVLLSLQNENGGFASYELTRSYPWLELINPAETFGDIVIDYSYVECTSATMEALALFKKLHPGHRTKEIDAAIAKAANFLENMQKTDGSWYGCWGVCFTYAGWFGIKGLVAAGRTYNNCVAIRKACNFLLSKELPGGGWGESYLSCQNKVYTNLEGNKPHLVNTAWVMMALIEAGQGERDPAPLHRAARLLINSQLESGDFPQQEIMGVFNKNCMITYAAYRNIFPIWALGEYSHRVLDM
modifications: SS5a-E8 Full Gene AA seq
B7: SEQ ID NO 999: fusion protein having cucurbitadienol synthase activity (protein)
chain: MRGLTPKGSAAPGSGSGSGMWRLKVGKESVGEKEEKWIKSISNHLGRQVWEFCSGENENDDDEAIAVANNSASKFENARNHFRNNRFHRKQSSDLFLAIQCEKEIIRNGAKNEGTTKVKEGEDVKKEAVKNTLERALSFYSAVQTSDGNWASDLGGPMFLLPGLVIALYVTGVLNSVLSKHHRQEMCRYIYNHQNEDGGWGLHIEGSSTMFGSALNYVALRLLGEAADGGEHGAMTKARSWILERGGATAITSWGKLWLSVLGVYEWSGNNPLPPEFWLLPYSLPFHPGRMWCHCRMVYLPMSYLYGKRFVGPITPIVLSLRKELYTIPYHEIDWNRSRNTCAKEDLYYPHPKMQDILWGSIYHVYEPLFSGWPGKRLREKAMKIAMEHIHYEDENSRYICLGPVNKVLNMLCCWVEDPYSDAFKFHLQRIPDYLWLAEDGMRMQGYNGSQLWDTAFSIQAIISTKLIDTFGPTLRKAHHFVKHSQIQEDCPGDPNVWFRHIHKGAWPFSTRDHGWLISDCTAEGLKASLMLSKLPSKIVGEPLEKNRLCDAVNVLLSLQNENGGFASYELTRSYPWLELINPAETFGDIVIDYSYVECTSATMEALALFKKLHPGHRTKEIDAAIAKAANFLENMQKTDGSWYGCWGVCFTYAGWFGIKGLVAAGRTYNNCVAIRKACNFLLSKELPGGGWGESYLSCQNKVYTNLEGNKPHLVNTAWVMMALIEAGQGERDPAPLHRAARLLINSQLESGDFPQQEIMGVFNKNCMITYAAYRNIFPIWALGEYSHRVLDM
modifications: SS5e-C10 Full Gene AA seq

system: cucurbitadienol synthase activity; test: Cucurbitadienol synthase activities of fusion proteins in yeast strain with oxidosqualene boost, LCMS; assay type: cell-based, S. cerevisiae; details: average % activities over the average activities of the parent enzyme (Cucumis melo cucurbitadienol synthase)
Outline: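 Codon-optimized Cucumis melo cucurbitadienol synthase with N- or C-terminal fusion peptides, expressed in an oxidosqualene-boosted yeast strain. Product measured by LCMS (C4 column, positive ESI SIM at 427 and 409) relative to internal standard; activity scored as average % of parent enzyme (n=8).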

| Molecule | Activity (as compared to the parent) [%] |
| --- | --- |
| B1 | 118 |
| B2 | 97 |
| B3 | 111 |
| B4 | 124 |
| B5 | 114 |
| B6 | 80 |
| B7 | 103 |
